# Some of the results follow.
# Columns and labels:
# Assay in all cases: glycan array binding signal (z-score within array); higher = stronger binding
# Conditions in all cases: glycan notation: IUPAC condensed, linker removed
# [1] = target: Fuc(a1-3)GlcNAc
# How it was run: (§1)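 Glycan array data were curated from 3228 arrays in the Consortium for Functional Glycomics database and kept only where the protein sequence was available. Glycan names were converted to IUPAC-condensed notation, and columns mapping to the same glycan were averaged. The binding signal is a within-array Z-score, averaged across arrays of the same protein sequence at different concentrations or buffers and across linkers. Negative Z-scores can be read as non-binding.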
# [2] = target: Fuc(a1-3)[Gal(b1-4)]Glc6S
# How it was run: as §1
# [3] = target: Fuc(a1-3)[Gal(b1-4)]GlcNAc
# How it was run: as §1
# [4] = target: Fuc(a1-3)[Gal(b1-4)]GlcNAc(b1-2)Man
# How it was run: as §1
# [5] = target: Fuc(a1-3)[Gal(b1-4)]GlcNAc(b1-2)Man(a1-3)[Fuc(a1-3)[Gal(b1-4)]GlcNAc(b1-2)Man(a1-6)]Man(b1-4)GlcNAc(b1-4)GlcNAc
# How it was run: as §1
# [6] = target: Fuc(a1-3)[Gal(b1-4)]GlcNAc(b1-2)Man(a1-3)[Fuc(a1-3)[Gal(b1-4)]GlcNAc(b1-2)Man(a1-6)]Man(b1-4)GlcNAc(b1-4)[Fuc(a1-6)]GlcNAc
# How it was run: as §1
# [7] = target: Fuc(a1-3)[Gal(b1-4)]GlcNAc(b1-3)Gal(b1-3)[Fuc(a1-4)]GlcNAc
# How it was run: as §1
# [8] = target: Fuc(a1-3)[Gal(b1-4)]GlcNAc(b1-3)Gal(b1-4)[Fuc(a1-3)]GlcNAc
# How it was run: as §1
# [9] = target: Fuc(a1-3)[Gal(b1-4)]GlcNAc(b1-3)Gal(b1-4)[Fuc(a1-3)]GlcNAc(b1-3)Gal(b1-4)[Fuc(a1-3)]GlcNAc
# How it was run: as §1
# [10] = target: Fuc(a1-3)[Gal(b1-4)]GlcNAc(b1-3)GalNAc
# How it was run: as §1
# [11] = target: Fuc(a1-3)[Gal(b1-4)]GlcNAc(b1-6)GalNAc
# How it was run: as §1
# [12] = target: Fuc(a1-3)[Gal(b1-4)]GlcNAc(b1-6)[Gal(b1-3)GlcNAc(b1-3)]Gal(b1-4)Glc
# How it was run: as §1
# [13] = target: Fuc(a1-3)[Gal(b1-4)]GlcNAc6S
# How it was run: as §1
# [14] = target: Fuc(a1-3)[Gal3S(b1-4)]Glc
# How it was run: as §1
# [15] = target: Fuc(a1-3)[Gal3S(b1-4)]GlcNAc
# How it was run: as §1
# [16] = target: Fuc(a1-3)[Gal3S(b1-4)]GlcNAc6S
# How it was run: as §1
# [17] = target: Fuc(a1-3)[GalNAc(b1-4)]GlcNAc
# How it was run: as §1
# [18] = target: Fuc(a1-3)[GalNAc(b1-4)]GlcNAc6S
# How it was run: as §1
# [19] = target: Fuc(a1-4)GlcNAc
# How it was run: as §1
# [20] = target: Fuc(b1-3)GlcNAc
# How it was run: as §1
# [21] = target: Gal(a1-2)Gal
# How it was run: as §1
# [22] = target: Gal(a1-3)Gal
# How it was run: as §1
# [23] = target: Gal(a1-3)Gal(b1-3)GlcNAc
# How it was run: as §1
# [24] = target: Gal(a1-3)Gal(b1-3)GlcNAc(b1-2)Man
# How it was run: as §1
# [25] = target: Gal(a1-3)Gal(b1-3)GlcNAc(b1-2)Man(a1-3)[Gal(a1-3)Gal(b1-3)GlcNAc(b1-2)Man(a1-6)]Man(b1-4)GlcNAc(b1-4)GlcNAc
# How it was run: as §1
# [26] = target: Gal(a1-3)Gal(b1-3)GlcNAc(b1-3)GalNAc
# How it was run: as §1
# [27] = target: Gal(a1-3)Gal(b1-3)GlcNAc(b1-6)GalNAc
# How it was run: as §1
# [28] = target: Gal(a1-3)Gal(b1-3)[Fuc(a1-4)]GlcNAc(b1-2)Man(a1-3)[Gal(a1-3)Gal(b1-3)[Fuc(a1-4)]GlcNAc(b1-2)Man(a1-6)]Man(b1-4)GlcNAc(b1-4)GlcNAc
# How it was run: as §1
# [29] = target: Gal(a1-3)Gal(b1-4)Glc
# How it was run: as §1
# [30] = target: Gal(a1-3)Gal(b1-4)GlcNAc
# How it was run: as §1
# [31] = target: Gal(a1-3)Gal(b1-4)GlcNAc(b1-2)Man
# How it was run: as §1
# [32] = target: Gal(a1-3)Gal(b1-4)GlcNAc(b1-2)Man(a1-3)[Gal(a1-3)Gal(b1-4)GlcNAc(b1-2)Man(a1-6)]Man(b1-4)GlcNAc(b1-4)GlcNAc
# How it was run: as §1
# [33] = target: Gal(a1-3)Gal(b1-4)GlcNAc(b1-3)GalNAc
# How it was run: as §1
# [34] = target: Gal(a1-3)Gal(b1-4)GlcNAc(b1-6)GalNAc
# How it was run: as §1
# [35] = target: Gal(a1-3)Gal(b1-4)[Fuc(a1-3)]GlcNAc
# How it was run: as §1
# [36] = target: Gal(a1-3)Gal(b1-4)[Fuc(a1-3)]GlcNAc(b1-2)Man(a1-3)[Gal(a1-3)Gal(b1-4)[Fuc(a1-3)]GlcNAc(b1-2)Man(a1-6)]Man(b1-4)GlcNAc(b1-4)GlcNAc
# How it was run: as §1
# [37] = target: Gal(a1-3)GalNAc
# How it was run: as §1
binder,measurement,setting,value
Epa22 (Candida glabrata) (protein) MGSSHHHHHHSSGLVPRGSHMKRALSSQNPFGYPIGCSPQSTNVIPGLTMELYSYPIVSGTPPNCYDASYVDPEYPRTGYLKRKMIGKSTGVTGSLNYKFSVEKACMVKYGNLPAGYNYNEPLTVSNFTMLLYGYFKPQTSGIHTFFVNADDLLYINFGAGNAFDCCKREDSKFKLGEYVAYDIWHVDSSKNKVSLNLEKDVYYPIRMFFNNIGKDSSLDLSFSVNGAVEHITDFSGYLYSVPDQPDACPAPIGYDTTCK,glycan array binding signal (z-score),[1],-0.434
same,glycan array binding signal (z-score),[2],-0.284
same,glycan array binding signal (z-score),[3],-0.377
same,glycan array binding signal (z-score),[4],-0.299
same,glycan array binding signal (z-score),[5],-0.376
same,glycan array binding signal (z-score),[6],-0.317
same,glycan array binding signal (z-score),[7],-0.238
same,glycan array binding signal (z-score),[8],-0.365
same,glycan array binding signal (z-score),[9],-0.397
same,glycan array binding signal (z-score),[10],-0.325
same,glycan array binding signal (z-score),[11],-0.096
same,glycan array binding signal (z-score),[12],-0.273
same,glycan array binding signal (z-score),[13],-0.192
same,glycan array binding signal (z-score),[14],-0.396
same,glycan array binding signal (z-score),[15],-0.286
same,glycan array binding signal (z-score),[16],-0.093
same,glycan array binding signal (z-score),[17],-0.314
same,glycan array binding signal (z-score),[18],-0.362
same,glycan array binding signal (z-score),[19],-0.399
same,glycan array binding signal (z-score),[20],-0.397
same,glycan array binding signal (z-score),[21],0.169
same,glycan array binding signal (z-score),[22],2.38
same,glycan array binding signal (z-score),[23],2.06
same,glycan array binding signal (z-score),[24],1.14
same,glycan array binding signal (z-score),[25],-0.134
same,glycan array binding signal (z-score),[26],2.62
same,glycan array binding signal (z-score),[27],3.74
same,glycan array binding signal (z-score),[28],-0.16
same,glycan array binding signal (z-score),[29],2.68
same,glycan array binding signal (z-score),[30],5.2
same,glycan array binding signal (z-score),[31],4.75
same,glycan array binding signal (z-score),[32],0.265
same,glycan array binding signal (z-score),[33],3.56
same,glycan array binding signal (z-score),[34],2.47
same,glycan array binding signal (z-score),[35],0.998
same,glycan array binding signal (z-score),[36],-0.262
same,glycan array binding signal (z-score),[37],1.12

# Reference: the supplement of paper PMC8728848
